Results on four molecules are retold here after PMC7005904.

Chains of the proteins cited; added tags and fusions are not shown.
UniProt Q92993: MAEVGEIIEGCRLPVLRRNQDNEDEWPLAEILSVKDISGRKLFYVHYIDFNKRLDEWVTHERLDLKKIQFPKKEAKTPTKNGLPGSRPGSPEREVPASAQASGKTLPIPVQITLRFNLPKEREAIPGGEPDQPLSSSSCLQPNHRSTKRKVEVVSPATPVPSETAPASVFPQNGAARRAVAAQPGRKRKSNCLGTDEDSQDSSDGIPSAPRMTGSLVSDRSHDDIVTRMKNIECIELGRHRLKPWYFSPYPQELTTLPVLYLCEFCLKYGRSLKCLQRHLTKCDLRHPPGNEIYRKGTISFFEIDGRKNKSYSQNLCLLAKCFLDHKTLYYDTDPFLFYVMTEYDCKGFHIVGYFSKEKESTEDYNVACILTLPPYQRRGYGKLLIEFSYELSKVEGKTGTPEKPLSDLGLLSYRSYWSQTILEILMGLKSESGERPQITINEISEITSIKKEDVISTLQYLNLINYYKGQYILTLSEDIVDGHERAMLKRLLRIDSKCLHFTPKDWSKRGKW
UniProt Q96EB6: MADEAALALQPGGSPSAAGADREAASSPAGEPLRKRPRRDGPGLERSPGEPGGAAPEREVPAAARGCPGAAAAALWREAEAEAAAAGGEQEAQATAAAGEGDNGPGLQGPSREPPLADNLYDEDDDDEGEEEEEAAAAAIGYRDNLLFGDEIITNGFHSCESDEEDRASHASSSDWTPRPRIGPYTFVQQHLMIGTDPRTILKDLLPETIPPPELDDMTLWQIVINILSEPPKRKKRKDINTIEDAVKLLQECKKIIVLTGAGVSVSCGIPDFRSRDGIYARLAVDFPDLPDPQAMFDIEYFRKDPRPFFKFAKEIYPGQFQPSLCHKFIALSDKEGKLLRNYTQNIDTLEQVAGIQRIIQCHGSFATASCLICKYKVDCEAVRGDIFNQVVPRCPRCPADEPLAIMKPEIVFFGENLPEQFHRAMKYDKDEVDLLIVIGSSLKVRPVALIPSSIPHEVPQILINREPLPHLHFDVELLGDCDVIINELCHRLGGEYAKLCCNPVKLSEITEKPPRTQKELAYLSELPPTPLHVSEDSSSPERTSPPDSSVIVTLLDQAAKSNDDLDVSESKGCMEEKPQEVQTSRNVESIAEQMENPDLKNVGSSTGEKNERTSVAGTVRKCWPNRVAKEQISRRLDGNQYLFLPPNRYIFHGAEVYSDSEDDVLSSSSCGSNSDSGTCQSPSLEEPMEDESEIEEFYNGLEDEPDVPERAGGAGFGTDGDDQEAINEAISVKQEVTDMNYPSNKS

Test [1] concerns the target T1, SFB-tagged XPF (wild type) (UniProt Q92889).
T1 sequence: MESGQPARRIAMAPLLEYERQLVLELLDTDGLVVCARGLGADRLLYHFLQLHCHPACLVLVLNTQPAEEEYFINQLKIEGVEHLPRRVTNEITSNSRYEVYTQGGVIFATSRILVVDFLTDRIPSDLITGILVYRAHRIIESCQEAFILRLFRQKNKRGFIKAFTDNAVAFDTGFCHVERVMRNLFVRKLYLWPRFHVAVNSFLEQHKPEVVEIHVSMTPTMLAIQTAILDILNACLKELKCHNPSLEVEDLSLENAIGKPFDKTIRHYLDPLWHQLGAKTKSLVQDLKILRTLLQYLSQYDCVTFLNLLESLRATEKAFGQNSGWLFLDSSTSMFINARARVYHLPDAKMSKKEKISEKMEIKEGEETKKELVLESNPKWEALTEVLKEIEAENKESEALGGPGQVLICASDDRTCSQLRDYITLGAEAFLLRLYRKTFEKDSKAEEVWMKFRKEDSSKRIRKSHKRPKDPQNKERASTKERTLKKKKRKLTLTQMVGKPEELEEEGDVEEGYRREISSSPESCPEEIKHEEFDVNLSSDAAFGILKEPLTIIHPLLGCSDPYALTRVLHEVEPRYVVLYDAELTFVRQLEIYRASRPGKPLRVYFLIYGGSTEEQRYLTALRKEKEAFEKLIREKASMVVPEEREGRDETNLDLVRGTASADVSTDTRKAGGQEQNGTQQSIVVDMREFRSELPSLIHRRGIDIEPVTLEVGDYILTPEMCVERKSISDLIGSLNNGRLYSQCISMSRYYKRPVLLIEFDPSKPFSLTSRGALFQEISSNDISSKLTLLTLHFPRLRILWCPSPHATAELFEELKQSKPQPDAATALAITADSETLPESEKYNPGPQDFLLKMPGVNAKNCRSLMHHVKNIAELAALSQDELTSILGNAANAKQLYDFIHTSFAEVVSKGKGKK
Briefly: co-IP; lysates of cells expressing SFB- and/or myc-tagged proteins, S-protein beads 3 h at 4 °C, NETN buffer, western blot; cells untreated or treated with UV (40 J m^-2) or MMC.

Test [2] has as its target T2, SFB-tagged XPF K871R (UniProt Q92889).
T2 sequence: T1 sequence with K871R
The description is as above.

For test [3], the target named is T3, SFB-tagged XPF K911R (UniProt Q92889).
T3 sequence: T1 sequence with K911R
The description is as above.

Test [4] concerns the target GST-tagged TIP60 (UniProt Q92993). Briefly: pull-down; GST pull-down: GST-tagged protein bound to glutathione-Sepharose, MBP-tagged protein purified from E. coli; XPF detected by immunoblotting; both purified.
Test [5] shares this target. Kind of test: pull-down; GST pull-down with GST-TIP60 (GST as control) and MBP-ERCC1, proteins purified from E. coli; ERCC1 detected by immunoblotting with anti-ERCC1; both purified.
Test [6] concerns the target GST-tagged SIRT1 (UniProt Q96EB6). Kind of test: pull-down; GST pull-down: GST-tagged protein bound to glutathione-Sepharose, MBP-tagged protein purified from E. coli; XPF detected by immunoblotting; both purified.
In test [7] the target is SFB-tagged TIP60 (UniProt Q92993). Briefly: co-IP; lysates of cells expressing SFB- and/or myc-tagged proteins, S-protein beads 3 h at 4 °C, NETN buffer, western blot; cells untreated or treated with UV (40 J m^-2) or MMC.

Substitutions are numbered along the chain they refer to. Results are given in words; binding and its absence hold for the method and conditions named. For some assays here: In cells and extracts the contact can be indirect. Some binding calls cover weakened binding; strength is not graded here. For some assays here: Tags and fused reporters may be left off the sequences shown.

For “Myc-tagged TIP60 (from UniProt Q92993 1-513) (enzyme)”, the binding entry in test [1], in test [2] and in test [3] was “binds” in each case.

B1: MBP-tagged ERCC1 (protein, UniProt P07992 1-297)
chain: MDPGKDKEGVPQPSGPPARKKFVIPLDEDEVPPGVAKPLFRSTQSLPTVDTSAQAAPQTYAEYAISQPLEGAGATCPTGSEPLAGETPNQALKPGAKSNSIIVSPRQRGNPVLKFVRNVPWEFGDVIPDYVLGQSTCALFLSLRYHNLHPDYIHGRLQSLGKNFALRVLLVQVDVKDPQQALKELAKMCILADCTLILAWSPEEAGRYLETYKAYEQKPADLLMEKLEQDFVSRVTECLTTVKSVNKTDSQTLLTTFGSLEQLIAASREDLALCPGLGPQKARRLFDVLHEPFLKVP
For B1, the binding result in test [4] and in test [5] was “no binding” in each case.

B2: MBP-tagged XPF (protein, UniProt Q92889 1-916)
chain: T1 sequence
For the molecule B2, the binding entry in test [6] and in test [4] was “binds” each time.

B3: XPF, endogenous in HEK293T (protein, UniProt Q92889 1-916)
chain: T1 sequence
Take B3: the binding result in test [7] is recorded as “binds”.
